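Interpolation was linear, between the two tested concentrations surrounding the appropriate level; five concentrations were tested over 48 hours in 96-well plates. The concentration for 50% growth inhibition is given as GI50. TGI: concentration producing complete growth inhibition.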

Our source for the TGI and GI50 values is PubChem BioAssay (NCI).

The assay concerns NCI-H322M lung. Kind of assay: NCI tumour cell line growth inhibition, 48 h.
Turning to `Cc1ccc(/C=N/Nc2ncccn2)s1`, the TGI was more than 100 µM.
The compound `NC(CCCCNc1ccn(C2OC(CO)C(O)C2O)c(=O)n1)C(=O)O` (stereo unspecified) yielded a TGI of more than 100 µM.
On the same count and under the same terms, the result for `CC(C)C(N)(C(=O)O)c1ccccc1` (stereo unspecified) reads more than 100 µM.
Regarding `CC(=O)OC[C@@]12C[C@H]3C(=O)C(C)(C)C[C@H]3[C@]1(C)[C@@H](OC(C)=O)[C@]1(O)[C@H]([C@@H](OC(=O)c3ccccc3)[C@@H](C)[C@H]1OC(C)=O)[C@H]2OC(C)=O`, the TGI is more than 20 µM.
Take `CCSC1=CC(=O)c2ccccc2C1=O`: the GI50 is 17.6 µM and the TGI came to 48.2 µM.
In the case of `O=C(O)CCC1(c2ccccc2)NC(=O)NC1=O` (stereo unspecified), the TGI was more than 100 µM.
As to `c1ccc(-c2nc(N3CCNCC3)c3nc(-c4ccccc4)oc3n2)cc1`, the GI50 is 1.67 µM and the TGI was found to be 3.06 µM.
The compound `COc1cc2c(cc1OC)CCN=C2` gave a TGI of more than 100 µM.
The same measure, in the same setting: in the case of `CCN(CC)CCNc1ccc(C)c2sc3ccc(O)cc3c(=O)c12` it was 8.29 µM.
`C#Cc1ccc(NC(=O)c2ccc(/C=C/C(=O)c3nccn3C)cc2)cc1`: the GI50 is 0.459 µM and the TGI worked out at 1.17 µM.
`Cc1cc2c(-c3ccccc3)cc(=O)[nH]c2cc1N` showed a TGI of more than 100 µM.
For `COc1cc(CC2c3cc(OC)c(OC)cc3CCN2C)c(Oc2cc3c(cc2OC)-c2c(OC)c(OC)c(OC)c4c2C(C3)N(C)CC4)cc1OC` (stereo unspecified), the TGI was more than 53.8 µM.
As to `CCOC(=O)C12CC1(C(=O)OCC)C1CCC2C1` (stereo unspecified), the TGI was more than 100 µM.
For `O=C1/C(=C/c2cccs2)CCC/C1=C\c1cccs1`, the GI50 is 51.5 µM and the TGI is more than 100 µM.
Compound `CN1CCN(c2ccc3[nH]c(C4=C(O)c5nc(CO)n(C)c5C(=O)C4=O)nc3n2)CC1` had a TGI of more than 100 µM.
Same read-out and setting: the result for `CCC1(CN(C)C)CC/C(=C\c2ccc3c(c2)OCO3)C1=O` (stereo unspecified) reads more than 100 µM.
As for `CCNCCNc1cc(-c2ccc(F)cc2)c(C#N)c2nc3ccccc3n12`, the GI50 was 6.38 µM and the TGI was determined as 20.2 µM.
For `O=C(C1OC1c1ccc([N+](=O)[O-])cc1)C12CC3CC(CC(C3)C1)C2` (stereo unspecified), the TGI came out at 42.7 µM.
On the same count and under the same terms, the result for `Cc1cc(C)nc(NS(=O)(=O)c2ccc(NC(=O)c3cccc4cc5ccccc5nc34)cc2)n1` reads more than 100 µM; that for `O=[N+]([O-])c1ccc(Cl)c(C2SCc3nc4ccccc4n32)c1` (stereo unspecified), more than 100 µM; that for `CC(=O)Oc1c(OC(C)=O)c(-c2ccc(O)c(O)c2)c(O)c(O)c1-c1ccc(O)cc1`, more than 100 µM.
For `COC(=O)C1=C(C(=O)OC)C2(C(=O)OC)OC1(OC)C(C1(C(=O)OC)C(C(=O)OC)=C1C(=O)OC)=C2C(=O)OC` (stereo unspecified), the TGI was more than 100 µM.
As for `COc1ccc(/C=C2\N=C3SC=C(N)N3C2=O)cc1`, the GI50 is 1.91 µM and the TGI is 12.3 µM.
For the compound `CC/C(Cl)=N\OC(=O)Nc1ccc(C#N)cc1`, the TGI was found to be 34.1 µM.
`Cn1c(=O)c2[nH]c(COc3ccc(C(C)(C)C)cc3)nc2n(C)c1=O`: the GI50 was 14.4 µM and the TGI stood at 65.3 µM.
In turn, `N#Cc1c(NC(=S)NCc2ccccc2)sc2c1CCN(N1CCc3c(sc(NC(=S)NCc4ccccc4)c3C#N)C1)C2` came in with a TGI of more than 100 µM.
`CCOC(=O)c1c(SCCO)n(-c2ccccc2)c(=S)n(-c2ccccc2)c1=O` registered a TGI of more than 100 µM.
Turning to `O=C(/C=C/c1cccc(Cl)c1)c1ccc(Cl)cc1Cl`, the GI50 is 11.6 µM and the TGI turned out to be 27.9 µM.
